# Assay results published in ChEMBL document CHEMBL4888484, “Replenishing the malaria drug discovery pipeline: Screening and hit evaluation of the MMV Hit Generation Library 1 (HGL1) against asexual blood stage Plasmodium falciparum ,using a nano luciferase reporter read-out” (2022).
# In all, about 150,000 compounds went through this assay and about 540 (0.36%) showed an effect of 50% or more. This is one part of the list.
# Test system: Plasmodium falciparum
# Experiment: Primary screen in NF54 nanoGlo assay, in single point, at 2uM, 72h; a lower Z score goes with more inhibition
# Format: functional, Erythrocyte
# Conditions: timepoint 72 hour
SMILES,% Inhibition,Z score
CC[C@H](C)N(CC(=O)O)C(=O)Cc1cc(C)on1,0%,-0.06
COc1cccc(C=CCCN2CCCN(C3CCOCC3)CC2)c1,-4%,0.4
CCc1ccc(C(=O)N(C)CC2(CO)CCOCC2)[nH]1,-14%,1.39
COc1cccc(NC(=O)c2ccccc2-c2nc3ccccc3s2)c1,-5%,0.7
Cc1cn2ccnc(C(=O)Nc3cc(C(=O)N4CCOCC4)ccc3C)c2n1,-19%,3.06
CC(C)(C)c1ccccc1S(=O)(=O)Nc1ccc(-c2nc[nH]n2)cc1F,12%,-1.99
COCc1nc(CNC(=O)N[C@H](C)c2ccc(Cl)cc2)cs1,-13%,1.92
CCn1cnnc1CCNC(=O)c1nccnc1C(=O)N1CCCCC1,-4%,0.68
COCCn1nnc2cc(S(=O)(=O)N(C)CC(=O)NCc3cccnc3)ccc21,-26%,2.27
O=c1n(C[C@H]2CCOC2)nc2cnccn12,-10%,0.87
Cc1noc(-c2ccc(C(C)(C)C)cc2)c1C(=O)N[C@H]1CCCc2ccccc21,-15%,1.69
C[C@H](NC(=O)CCCn1cnnn1)c1nc(-c2ccncc2)no1,-17%,1.79
CCCN1CCC2(CC1)CCN(C(=O)c1ccc(Cl)c(C)c1)C[C@@H]2CO,-1%,0.23
COc1ncc(Cl)c(N2CCC[C@H]2c2nc3ccccc3s2)n1,-5%,0.46
CC(C)(C)OC(=O)N[C@H]1CCN(Cc2nccn2CC(F)(F)F)C1,-8%,1.14
N#Cc1cc(Br)ccc1NCC1CCS(=O)(=O)CC1,-10%,1.96
O=C1CN(C(=O)c2cc(C3CC3)[nH]n2)CCN1,-8%,0.74
COc1ccc(NC(C)=O)cc1NC(=O)N[C@@H](C)c1cc2ccccc2o1,6%,-1.07
CC(C)(C)c1coc([C@@H]2COCCN2Cc2ccc(S(C)(=O)=O)cc2)n1,-16%,2.12
C[C@H](O)CN1CCC(CN(CC(=O)NCc2ccc(F)cc2)CC(=O)NCc2ccc(F)cc2)CC1,-12%,1.03
Nc1nc(C(=O)NCc2cncn2C2CC2)cs1,-3%,0.52
Cc1nc(C)c(CC(=O)Nc2nc(C(C)C)cs2)c(=O)[nH]1,7%,-1.13

SMILES,% Inhibition,Z score
COC(=O)CCNS(=O)(=O)Oc1ccccc1O,-6%,1.04
COC[C@@H]1[C@H](C(=O)Nc2cc(OC)ccc2OC)CCCN1C,-7%,0.85
CC(C)CN1CCO[C@@H](COC(=O)c2ccnn2C)C1,-1%,0.14
COC(=O)c1cnc2c(c1)n(CC(=O)N1CCCOCC1)c(=O)n2CC(C)C,-9%,1.16
CCC(C)Oc1cccc(NC(=O)N2CCC(C(C)(C)C)C(O)C2)c1 (centres undefined),-7%,0.86
Cc1ccc(-c2nc3ccc(Oc4ccc(N)cc4)cc3nc2-c2ccc(C)c(C)c2)cc1C,5%,-0.82
O=C(NCc1ccccn1)c1cccc(S(=O)(=O)N2CCOCC2)c1,-6%,0.86
C=CCn1cc(-c2c(-c3ccccc3)ncn2Cc2nc(CC)cs2)cn1,5%,-0.78
O=C(Nc1cccc(F)c1)c1cc2nc(N3CCCCC3)sc2s1,5%,-0.84
Oc1ccc2ncccc2c1[C@@H](Nc1ccccn1)c1cccc(Br)c1,58%,-12.1
CCN(CC)S(=O)(=O)c1ccc(C(=O)N2CCC[C@H]2c2nc3ccccc3n2C)cc1,-9%,1.19
N#CC1(C(=O)NC2CCC(F)C2)CCC1 (centres undefined),-5%,0.46
CC1CC(C)(C)CCC1NC(=O)c1ncncc1Cl (centres undefined),20%,-2.52
COc1ccccc1N(CC(=O)N[C@H](C)c1ccccc1)S(=O)(=O)c1ccc(C)cc1,1%,-0.13
CCc1cnc(C)nc1N1CCC(N2CC(n3nc(C)cc3C)C2)CC1,6%,-1.11
O=C(Cn1cncn1)N1CCCC[C@@]12CCCOC2,1%,-0.22
O=C(Nc1cc(F)cc(F)c1)N1CC[C@H](Cc2ccncc2)C1,-5%,0.93
Cc1csc(N2CCC(NCc3nc(N(C)C)no3)CC2)n1,-9%,1.33
c1cc(Oc2nnn[nH]2)ccc1NC[C@H]1CCOC1,-15%,1.92
COc1ccc([C@@]2(C)NC(=O)N(Cc3csc(-c4ccccc4)n3)C2=O)cc1OC,-10%,1.56
O=C(Cn1cccc(S(=O)(=O)N2CCCC2)c1=O)Nc1ccc(F)cc1Cl,-4%,0.62
Cn1nc(-c2cccnc2)cc1CNC(=O)NC(C)(C)C,13%,-1.71

SMILES,% Inhibition,Z score
N/C(=N\O)c1cccn1-c1nccs1,7%,-0.81
Cc1nscc1C(=O)Nc1cccc(S(=O)(=O)C2CCOCC2)c1,13%,-1.66
CC(CNC(=O)NCC(O)c1ccsc1)c1ccc(F)cc1F (centres undefined),-11%,1.89
O=C(CCCN1Cc2ccccc2C1)N[C@@H]1C[C@H]2OCC[C@@H]12,-14%,1.37
CCN(CC)c1onc(-c2ccccc2)c1CN(C(=O)CC(C)C)C(C)C,1%,-0.24
CC1(C)CC(N[C@@H]2c3ccccc3OC[C@@H]2CO)C1,2%,-0.21
COc1cc(CN(C)C(=O)Nc2conc2C)sn1,3%,-0.44
COc1cc(C)ccc1Oc1cc(N2CCN(S(=O)(=O)c3ccc(C)cc3)[C@@H](C)C2)ncn1,-7%,0.76
O=C(c1ccc2c(c1)OCO2)N1CCC[C@@](CO)(CCCc2ccccc2)C1,0%,-0.01
COc1cccc([C@H](c2sc3ncnn3c2O)N2CCCCCC2)c1OC,-3%,0.42
CCOC(=O)C1CCN(C(=O)c2ccc3c(c2)CCN3S(C)(=O)=O)CC1,0%,-0.04
Cc1ccc(C(=O)NC[C@H]2CCCO2)c(C2CCN(Cc3ccccc3)CC2)n1,6%,-0.72
C#CCNC(=O)c1cc(Br)ccc1O,-45%,5.22
COC1(C(=O)Nc2cccc(N(C)C)c2C)CCOCC1,28%,-3.14
Cc1nn(C)c(Cl)c1CNCCc1cn2c(n1)CCCC2,-4%,0.58
C[C@H](NC(=O)Nc1ccccc1)C(=O)N(C)Cc1ccsc1,-5%,0.63
COCc1nc(CCC(=O)OC)cs1,1%,-0.1
CCc1ccc2ncc3c(-c4ccc(F)cc4)n[nH]c3c2c1,-6%,0.73
Cc1cc(N(C)C)nc(NC(=O)N2CC[C@H](CN3CCCCC3)C2)n1,-16%,1.87
CCc1ccc(CN2CCC[C@H](CNC(=O)NC(C)C)C2)nc1,8%,-1.16
CS(=O)(=O)c1cc(C(=O)NCC[C@H]2CCc3ccccc32)cs1,-7%,1.35
CC(NCCC(O)C(C)C)c1cccc(C#N)c1 (centres undefined),-8%,0.75

SMILES,% Inhibition,Z score
Nc1nnnn1CC(=O)NCC1(N2CCOCC2)CCCCC1,-7%,1.25
Cc1ccccc1NC(=O)c1nnc(CCCC(=O)NCc2ccccc2Cl)s1,-10%,1.71
CN1CCC(CNS(=O)(=O)c2cccs2)CC1,-1%,0.27
CC(=O)c1cccc(N(C)CC2CCCC2O)n1 (centres undefined),1%,-0.24
COc1ccc(-c2nc3ccc(C(=O)N4CCN(c5cc(C)ccc5C)CC4)cc3nc2-c2ccc(OC)c(OC)c2)cc1OC,13%,-1.49
Cc1ccccc1C1(C(=O)Nc2cnn(CC(=O)N3CCOCC3)c2)CCCC1,-4%,0.44
CC[C@H](Oc1ccc(F)cc1)C(=O)NCc1csc(C)n1,19%,-2.21
Cn1nncc1C(=O)N1CCS(=O)(=O)C[C@H]1C(C)(C)C,-3%,0.48
O=C(Nc1ccc2c(c1)C(N1CCCC1)=Nc1ccccc1O2)c1ccccc1Cl,0%,0.03
O=C(NCc1cccs1)c1cccn1CCN1CCOCC1,-4%,0.52
COC1CCN(CCN2CCN(c3ccccc3)CC2)CC1,-10%,1.84
Nc1nc2ccc(N3CCCC3)cc2s1,37%,-2.32
O=S(=O)(NCC1CC1)c1cnc(NCCO)c(C(F)(F)F)c1,-6%,1.29
Cc1nc(C)c(-c2ccnc(N(C)C)c2)o1,-4%,0.72
O=C(Nn1nnc2ccccc21)c1cccc(C(F)(F)F)c1,3%,-0.47
O=C(c1ncoc1C1CC1)N1CCOC[C@@H](O)C1,13%,-1.88
COc1ccc(OC)c(S(=O)(=O)N2CCCCCCN(C)C(=O)CC2)c1,-10%,1.34
Cc1noc([C@@H]2CN(C(=O)Cc3c(C)noc3C)C[C@H]2C(N)=O)n1,-10%,1.53
Cc1nc2ccc(-n3ncnc3COC[C@H]3CCCCO3)cc2s1,-6%,1.09
CCc1ncc(NC(=O)NCC[C@H]2CCC(F)(F)C2)cn1,-4%,0.59
COc1c(Br)cccc1C(=O)N[C@@H]1COC[C@@H]1OC,-4%,0.55
